Assay results taken from patent publication US20100210602A1, “PhoU (PerF), A P[…] INVOLVED IN [sequence] FORMATION AND TOLERANCE TO MULTIPLE ANTIBIOTICS AND [sequence] AS A DRUG TARGET FOR [sequence] BACTERIA” (priority 2006, published 2010).

Test system: PhoU mutant JHU-313
Assay: Energy inhibitor exposure in MOPS minimal medium pH 5.0 (CFU)
Details: 1 day of exposure; DCCD 5 mM, CCCP 1 mM; MOPS pH 5.0

| SMILES | drop in CFU counts in the PhoU mutant over that of the wild type strain W3110 |
| --- | --- |
| C(=NC1CCCCC1)=NC1CCCCC1 [DCCD] | about 1000 fold |
| N#CC(C#N)=NNc1cccc(Cl)c1 [CCCP, carbonyl cyanide m-chlorophenylhydrazone] | about 1000 fold |
